According to ChEMBL document CHEMBL1201862, “PubChem BioAssay data set” (2004):
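Values below derive from 48-hour exposures of cells grown in 96-well plates, with endpoints linearly interpolated between the two concentrations bracketing the appropriate inhibition level. GI50 = concentration required for 50% inhibition of growth.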 The source made the active and inactive calls. No stated cut-off is given here; in the data, active = GI50 up to about 1.1 µM and inactive = higher.

These compounds were tested on NCI-H322M (assay: NCI tumour cell line growth inhibition, 48 h).

SMILES	GI50
CC(C)c1ccc(O)c(=O)c(O)c1.CC(C)c1ccc(O)c(=O)cc1.CC(C)c1cccc(=O)c(O)c1.CC(C)c1ccccc(=O)c1O	inactive: 1.97 µM
Cc1ccc(S(=O)(=O)N/N=C2\C(=O)Nc3cc(O)c(C(=O)O)cc32)cc1	inactive: > 100 µM
Cc1cc(=O)oc2c(OS(C)(=O)=O)c(OS(C)(=O)=O)ccc12	inactive: > 100 µM
C=CC(=O)N1C/C(=C\c2ccccc2)C(=O)/C(=C/c2ccccc2)C1	inactive: 3.23 µM
CCCCCCCCCCCCCCCC(=O)OCC(O)C1OC(=O)C(O)=C1O (stereo not given)	inactive: 29.8 µM
CCCCc1ccc(Nc2nc(N)c3[nH]cnc3n2)cc1	inactive: 19.7 µM
COc1cc([C@@H]2c3cc4c(cc3[C@@H](OC3OC5COC(C)OC5C(O)C3O)[C@H]3COC(=O)[C@H]23)OCO4)cc(OC)c1O (stereo not given in full)	inactive: 86.5 µM
CN(C)Cc1nsc(N(C)C)n1	inactive: > 100 µM
COc1ccc(C[C@H]2COC(=O)[C@@H]2Cc2ccccc2)cc1OC	inactive: > 100 µM
O=C1C2CCN(CC2)C1(CO)CO	inactive: 62.4 µM
OCC[N+]12CCCN1CCC2	inactive: > 100 µM
COC(=O)c1cc2c(c(C(=O)OC)c1O)C(=O)C=CC2=O	inactive: > 100 µM
COc1cc(C2C3=C(COC3=O)Oc3cc4c(cc32)OCO4)ccc1OC(C)=O (stereo not given)	active: 0.589 µM
COc1nc(NC2OCC(OC(C)=O)C(OC(C)=O)C2OC(C)=O)c(/N=C(\C)C(C)=O)c(=O)n1C (stereo not given)	inactive: > 100 µM
CC1=CC2CC(C)=C(CC[C@]3(C)CC[C@H]([C@@H](C)C(=O)O)OO3)C(C)(C)C2CC1 (stereo not given in full)	inactive: 1.55 µM
COc1cc2c(cc1OC)-c1c3cc(O)ccc3nn[n+]1CC2	inactive: > 100 µM
O=C(Cc1ccccc1)NN1C(=O)C(Cl)C1c1cc(Br)ccc1O (stereo not given)	inactive: 5.32 µM
CCCC1CC(=O)NC(=O)C1C(=O)OC(C)(C)C (stereo not given)	inactive: > 100 µM
CC(C)/C(Cl)=N\OC(=O)Nc1ccc(F)cc1F	inactive: 2.77 µM
CCOC(=O)CCc1cc(=O)oc2cc(O)cc(O)c12	inactive: > 100 µM
O=C(/C=C1\Nc2ccccc2C(=O)N1c1ccc(Cl)cc1)c1ccncc1	inactive: > 100 µM
CSC1=C(C(=O)Nc2ccccc2)C(N)=NC1=O	inactive: > 100 µM
CCCCCCCCC/C=C1\CCC(CN2CCOCC2)C1=O (stereo not given)	inactive: 14.1 µM
N#C/C(=C/n1c(=S)[nH]c2ccccc21)C(N)=O	inactive: > 100 µM

SMILES	GI50
Cc1cn(CCOCCOC(=O)NC(CCCNC(N)=O)C(=O)O)c(=O)[nH]c1=O (stereo not given)	inactive: > 100 µM
COc1ccc2c(ccc3c(C(=O)NCCCN(C)CCCNC(=O)c4cn(C)c5c4ccc4cc(OC)ccc45)cn(C)c32)c1	inactive: 3.03 µM
CC(C)(C)OC(=O)n1c(-c2ccccc2F)cc(=O)c2cc3c(cc21)OCO3	active: 0.27 µM
O=C1CC(c2ccc(Cl)cc2)C2(C(=O)NC(=S)NC2=O)C(c2ccc(Cl)cc2)C1 (stereo not given)	inactive: 17.7 µM
O=C(Nc1nc(C23CC4CC(CC(C4)C2)C3)cs1)c1c(O)c2ccccc2[nH]c1=O	inactive: > 100 µM
COc1cccc(N(CN2C(=O)CCC2OC)C(C)=O)c1 (stereo not given)	inactive: > 100 µM
Cc1ccc(S(=O)(=O)SCc2ccccc2CSS(=O)(=O)c2ccc(C)cc2)cc1	inactive: > 100 µM
O=C(N/C=C1\C(=O)Oc2ccccc2C1=O)Nc1ccccc1	inactive: 42 µM
COC(=O)[C@@H]1Cc2ccc(OC)c(c2)OCCC(=O)N1	inactive: > 100 µM
COc1ccc2oc3cccc(NCCN(C)C)c3c(=O)c2c1	inactive: 11.4 µM
CN(C)c1ccc(/C=N/C23CC4CC(CC(C4)C2)C3)cc1	inactive: > 100 µM
O=C(O)C1CCC(=O)N1C(=O)C(Cl)c1ccccc1 (stereo not given)	inactive: > 100 µM
O=C(c1ccccc1)C1CCCCN1C(=O)c1ccccc1 (stereo not given)	inactive: > 100 µM
c1ccc(COCC23CCN(Cc4ccccc4)C(CC(OCc4ccccc4)C2)S3)cc1 (stereo not given)	inactive: 36.7 µM
CC1(C)CC[C@]2(C(=O)O)CC[C@]3(C)C(=CC[C@@H]4[C@@]5(C)CC[C@H](OC6OC(C(=O)O)C(O)C(O)C6O)C(C)(C)[C@@H]5CC[C@]43C)[C@@H]2C1 (stereo not given in full)	inactive: 13.3 µM
CCOC(=O)C1CCC/C1=N\NC(=N)N.Cc1cc(O)c(C(C)C)cc1S(=O)(=O)O (stereo not given)	inactive: > 100 µM
O=C1CCCC/C1=C1/SC(=N/c2ccccc2)/C(=N\c2ccccc2)N1c1ccccc1	inactive: > 100 µM
Cc1cc(N(CCC#N)CCC#N)ccc1/N=N/c1ccc(Br)cc1	inactive: > 100 µM
O=C1Nc2nnc(S)n2NC12c1ccccc1-c1ccccc12	inactive: 15.1 µM
O=C1CCc2cc3c(cc21)C(C(=O)O)CC3 (stereo not given)	inactive: > 100 µM
CC1(C)CC(N2CCN(C3CC(C)(C)NC(C)(C)C3)CC2)CC(C)(C)N1	inactive: > 100 µM
COc1ccc(/C(=N/O)c2ccccc2-c2nc3ccccc3c(=O)n2-c2ccc(S(=O)(=O)Nc3ncccn3)cc2)cc1C	inactive: 25.6 µM
COc1cc(C(=O)C2CC3(CCC2(O)c2cc(OC)c(OC)c(OC)c2)CC(=O)Nc2ccccc2C3=O)cc(OC)c1OC (stereo not given)	inactive: > 100 µM
O=[N+]([O-])c1ccc(OCc2nnc(CCCCCCCCc3nnc(COc4ccc([N+](=O)[O-])cc4)o3)o2)cc1	inactive: > 100 µM

SMILES	GI50
CO[C@H]1C=C[C@]23c4cc5c(cc4CN(CC2O)[C@@H]3C1)OCO5 (stereo not given in full)	inactive: 2.51 µM
CC(C)=C[C@@H]1O[C@H](O)[C@@H]([C@H]2CC[C@@]3(C)[C@@H]4CC[C@H]5C(C)(C)C(=O)CC[C@@]56C[C@@]46CC[C@]23C)[C@@H]1O	inactive: 18 µM
O=C1CC(NCCCNC2CC(=O)c3c(Br)sc(Br)c32)c2c(Br)sc(Br)c21 (stereo not given)	inactive: 4.14 µM
CC(C)(C)OC(=O)c1ccc(NCC2=CC(=O)C=CC2=O)cc1	inactive: 22.9 µM
CN(C)CCNC(=O)Cn1ccc(=O)c2cc([N+](=O)[O-])ccc21	inactive: > 100 µM
CN(NC(=O)c1ccco1)C1=NCCCCN1	inactive: > 100 µM
c1ccc2c(c1)cc1c3[nH]c4ccccc4c3ccn21	inactive: > 10 µM
CN(C)CC/C(=N\Nc1ccccc1)c1ccccc1	inactive: 26.5 µM
CC(CN(C)C)C(O)(c1ccccc1)c1ccccc1 (stereo not given)	inactive: > 100 µM
COc1ccc(N[S+]([O-])CCc2ccccc2)cc1 (stereo not given)	inactive: > 100 µM
O=C(Nc1ccc(S(=O)(=O)/N=c2\ncccn2C(=O)C(C(F)(F)F)C(F)(F)F)cc1)C(C(F)(F)F)C(F)(F)F	inactive: > 100 µM
O=c1c2cc(Cl)ccc2sc2cccc(Cl)c12	inactive: > 100 µM
c1csc(-c2cscc2-c2ccsc2)c1	inactive: > 85.3 µM
Cc1ccc(/N=N/c2ccc(N)cc2C)c(S(N)(=O)=O)c1	inactive: > 100 µM
CC(=O)Nc1ccccc1S(=O)(=O)c1ccccc1	inactive: > 100 µM
O=C(NN1CCCCC1)c1cc2cc(CCl)ccc2oc1=O	inactive: 15.9 µM
O=C(CC1C(=O)Nc2ccccc2S1(=O)=O)Nc1cc(Cl)ccc1Cl (stereo not given)	inactive: 22.5 µM
COc1ccc2c(c1)N=C(N)n1c(nc3ccccc31)S2	inactive: 27 µM
S=C1Cc2cc3ccccc3nc2-c2ccccc2N1	inactive: 19.2 µM
CCOC(=O)C(Cc1ccccc1)NC(=O)c1nc[nH]c1/N=N/N(C)C (stereo not given)	inactive: > 100 µM
COc1ccc(C2C3CCc4ccccc4C3=NN2S(=O)(=O)c2ccc(/C=C/C(=O)O)cc2)cc1 (stereo not given)	inactive: 19.9 µM
Clc1cc2ncn(C3CCCO3)c2cc1Cl (stereo not given)	inactive: > 100 µM
CCN1C(=O)C(=C/C=C/c2ccc(OC)cc2)C(=O)N(CC)C1=S	inactive: > 100 µM
COc1cc(OC)c(OC)cc1/C=C/c1nc2ccccc2s1	inactive: 72.6 µM

SMILES	GI50
COc1ccc(C2SC(C)C(=O)N2c2nc(-c3nc(-c4ccc(Cl)cc4)cs3)cs2)cc1 (stereo not given)	inactive: > 100 µM
Cn1c(=O)c2[nH]c(N/N=C3/SCC(=O)N3Cc3ccccc3)nc2n(C)c1=O	inactive: 91.8 µM
CC[C@@H](/C=C\CCC1(C[C@H](O)CCC=C(C)C)OCCO1)O[Si](C(C)C)(C(C)C)C(C)C	inactive: 38.2 µM
CC1=NN(c2cccc(Cl)c2)C2(C1=Cc1ccc(N(C)C)cc1)C(Cl)C(=O)N2c1nc2ccccc2s1 (stereo not given)	inactive: 59.8 µM
CC(=O)O[C@]1(C)OC(=O)[C@@H](C)N1[N+](=O)[O-]	inactive: > 100 µM
O=C(CC1C(=O)Nc2ccccc2[S+]1[O-])Nc1ccc(Cl)cc1 (stereo not given)	inactive: > 100 µM
CC1=[N+](C)CCCN1C	inactive: > 100 µM
N=C(N)c1ccc(/N=N/c2c(O)ccc3cc(O)ccc23)cc1	inactive: > 100 µM
CNC(=O)CN1CC(=O)N(C)C(=O)C1	inactive: > 100 µM
Cc1ccc(SSCCCCCS(=O)O)cc1	inactive: 45.5 µM
O=S(=O)(O)c1cc(Nc2ccnc3ccccc23)c2c(S(=O)(=O)O)cc(S(=O)(=O)O)cc2c1	inactive: > 100 µM
S=C(S)NCNC(=S)S	inactive: > 100 µM
COc1ccc(/[N+]([O-])=C/c2ccccc2OC(=S)S)cc1	inactive: > 100 µM
C=C1C(=O)C23CC1CCC2C12CO[C@@H]4OCC(C)(CC[C@@H]1OC3=O)C42 (stereo not given in full)	inactive: 15.7 µM
OC1C2CCCCN2C[C@@H](O)[C@H]1O (stereo not given in full)	inactive: > 100 µM
COC1=CC(=O)[C@]2(C)[C@H](C1=O)C(C)[C@H]2c1ccc(OC)cc1 (stereo not given in full)	inactive: > 100 µM
OC1[C@@H]2[C@@H](O)CCCN2C[C@@H](O)[C@H]1O (stereo not given in full)	inactive: > 100 µM
COc1ccc(-c2cc(O)c3ccc(C)nc3n2)cc1	inactive: > 100 µM
COc1cc(/C=C/c2ccc(OC)c(OC)c2OC)cc(OC)c1OC	inactive: 26 µM
Cc1cc(C)nc(Sc2c([N+](=O)[O-])ncn2C)n1	inactive: > 100 µM
COc1ccc(OC)c(CC2CCc3nc(N)nc(N)c3C2)c1 (stereo not given)	inactive: 3.13 µM
COc1ccc(C2Cc3cc(OC)c(OC)c(OC)c3C2=O)cc1 (stereo not given)	inactive: 94.4 µM
COc1ccc(NC(=O)c2cc(OC)c(OC)c(OC)c2)cc1	inactive: 32.8 µM
